From publication PMC11995724, “Antibiotic target discovery by integrated phenotypic and activity-based profiling of electrophilic fragments” (Cell chemical biology, 2025)
Screen size: about 3,200 compounds; about 110 (3.4%) showed an effect of 50% or more. Some of the results follow.

Test system: T1, V. cholerae SAD30
T1 construct: SAD30
Set-up: species or system S. aureus MSSA476 (TSB) or V. cholerae SAD30 (LB); 384-well bacterial growth screen at 25 uM, OD600 relative to DMSO control
Conditions: relative growth, OD600, LB; 25 µM; inhibitor

Row | Compound | % of control remaining
1 | O=C(CCl)N(Cc1ccc2c(c1)CCO2)C1CCCC1 [6-L11, 2-chloro-N-cyclopentyl-N-[(2,3-dihydro-1-benzofuran-5-yl)methyl]acetamide] | 89.7905%
2 | C#CCN(C(=O)c1ccc(NC(=O)C=C)cc1)C1CCCCC1 [3-D13, N-cyclohexyl-4-(prop-2-enamido)-N-(prop-2-yn-1-yl)benzamide] | 98.0886%
3 | CC(Cl)C(=O)N1CCOC(c2ccnc(N(C)C)n2)C1 (stereo not drawn) [6-L05, 2-chloro-1-{2-[2-(dimethylamino)pyrimidin-4-yl]morpholin-4-yl}propan-1-one] | 81.4485%
4 | O=C(CCl)NCCc1c[nH]c2c(F)c(F)c(F)cc12 [7-H16, 2-chloro-N-[2-(5,6,7-trifluoro-1H-indol-3-yl)ethyl]acetamide] | 90.4015%
5 | O=C(CCl)c1cc(Cl)sc1Cl [10-D16, 2-chloro-1-(2,5-dichlorothiophen-3-yl)ethan-1-one] | 21.5079%
6 | Cc1cc(C(=O)CCl)c(C)[nH]1 [10-J08, 2-chloro-1-(2,5-dimethyl-1H-pyrrol-3-yl)ethan-1-one] | 99.1233%
7 | CC(Cl)C(=O)N1Cc2cnn(C)c2C1 (stereo not drawn) [7-K09, 2-chloro-1-{1-methyl-1H,4H,5H,6H-pyrrolo[3,4-c]pyrazol-5-yl}propan-1-one] | 81.282%
8 | CC(Cl)C(=O)NCCNC(=O)c1ccoc1 (stereo not drawn) [7-E21, 2-chloro-N-{2-[(furan-3-yl)formamido]ethyl}propanamide] | 84.454%
9 | O=C(CCl)c1ccc(F)cc1F [10-I18, 2-chloro-1-(2,4-difluorophenyl)ethan-1-one] | 22.7547%
10 | C=CC(=O)NCC1CN(Cc2cccc(C)c2)CCO1 (stereo not drawn) [3-A05, N-({4-[(3-methylphenyl)methyl]morpholin-2-yl}methyl)prop-2-enamide] | 122.966%
11 | C=CC(=O)NCCc1coc(-c2ccc(C)cc2)n1 [1-M06, N-{2-[2-(4-methylphenyl)-1,3-oxazol-4-yl]ethyl}prop-2-enamide] | 81.3154%
12 | C=CC(=O)NC(C)c1ccc2c(c1)CCC2 (stereo not drawn) [3-F09, N-[1-(2,3-dihydro-1H-inden-5-yl)ethyl]prop-2-enamide] | 89.0902%
13 | CCCNC(=O)C(C#N)=Cc1ccc(-n2cncn2)c(C)c1 [9-C05, 2-cyano-3-[3-methyl-4-(1H-1,2,4-triazol-1-yl)phenyl]-N-propylprop-2-enamide] | 87.7634%
14 | C=CC(=O)NCc1cc(Cl)c2c(c1)OCO2 [2-F15, N-[(7-chloro-1,3-dioxaindan-5-yl)methyl]prop-2-enamide] | 80.469%
15 | O=C(CCl)NC1CCN(C(=O)c2ccco2)c2ccccc21 (stereo not drawn) [5-O07, 2-chloro-N-[1-(furan-2-carbonyl)-1,2,3,4-tetrahydroquinolin-4-yl]acetamide] | 100.368%
16 | CC(Cl)C(=O)N1CCN(C(=O)Cc2cccc(Cl)c2)C(C)C1 (stereo not drawn) [7-E20, 2-chloro-1-{4-[2-(3-chlorophenyl)acetyl]-3-methylpiperazin-1-yl}propan-1-one] | 74.6737%
17 | COCC(NC(=O)C(C)Cl)c1cccc(C#N)c1 (stereo not drawn) [6-L19, 2-chloro-N-[1-(3-cyanophenyl)-2-methoxyethyl]propanamide] | 89.4872%
18 | O=C(CCl)N(Cc1ccco1)C12CC3CC(CC(C3)C1)C2 [4-J18, N-(adamantan-1-yl)-2-chloro-N-[(furan-2-yl)methyl]acetamide] | 70.5629%
19 | O=C(CCl)NCC1CCN(C(=O)c2ccccc2)CC1 [7-L06, N-[(1-benzoylpiperidin-4-yl)methyl]-2-chloroacetamide] | 86.5686%
20 | C=CC(=O)N(Cc1cc(C)c2ncccc2c1)C(C)C1CCCO1 (stereo not drawn) [1-P15, N-[(8-methylquinolin-6-yl)methyl]-N-[1-(oxolan-2-yl)ethyl]prop-2-enamide] | 91.1809%
21 | CC(c1ccc(S(N)(=O)=O)cc1)N(C)C(=O)CCl (stereo not drawn) [7-H12, 2-chloro-N-methyl-N-[1-(4-sulfamoylphenyl)ethyl]acetamide] | 82.6037%
22 | Cc1c(C(=O)N2CCN(C(=O)C(C)Cl)CC2)sc2ccccc12 (stereo not drawn) [7-H09, 2-chloro-1-[4-(3-methyl-1-benzothiophene-2-carbonyl)piperazin-1-yl]propan-1-one] | 76.524%
23 | CC(C)CN(C(=O)CCl)C1CCS(=O)(=O)C1 (stereo not drawn) [4-D12, 2-chloro-N-(1,1-dioxo-1lambda6-thiolan-3-yl)-N-(2-methylpropyl)acetamide] | 102.135%
24 | C=CC(=O)N(C1CCCC1)C(C)c1nnc2ccccn12 (stereo not drawn) [2-B07, N-cyclopentyl-N-(1-{[1,2,4]triazolo[4,3-a]pyridin-3-yl}ethyl)prop-2-enamide] | 90.8135%
25 | Cn1ncc(C(=O)CCl)n1 [10-J10, 2-chloro-1-(2-methyl-2H-1,2,3-triazol-4-yl)ethan-1-one] | 112.838%
26 | C=CC(=O)NC1CCCN(Cc2ccccc2)C1 (stereo not drawn) [1-K12, N-(1-benzylpiperidin-3-yl)prop-2-enamide] | 78.7743%
27 | CCC(C)c1ccccc1NC(=O)CCl (stereo not drawn) [6-K11, N-[2-(butan-2-yl)phenyl]-2-chloroacetamide] | 86.4537%
28 | COc1cc(NC(=O)CCl)cc(OC)c1 [4-G09, 2-chloro-N-(3,5-dimethoxyphenyl)acetamide] | 105.068%
29 | Cc1cccc(NC(=O)CCl)c1C [4-D04, 2-chloro-N-(2,3-dimethylphenyl)acetamide] | 113.004%
30 | CNC(=O)C(F)(F)C1(O)CCN(C(=O)CCl)CC1 [5-F03, 2-[1-(2-chloroacetyl)-4-hydroxypiperidin-4-yl]-2,2-difluoro-N-methylacetamide] | 95.9966%
